Experimental findings from the supplement of paper PMC12217912 are described below.

The labels stand for the following.
B1: TEV protease; numbered along this chain (parent)
chain: MGESLFKGPRDYNPISSSICHLTNESDGHTTSLYGIGFGPFIITNKHLFRRNNGTLVVQSLHGVFKVKDTTTLQQHLVDGRDMIIIRMPKDFPPFPQKLKFREPQREERICLVTTNFQTKSMSSMVSDTSCTFPSGDGIFWKHWIQTKDGQCGSPLVSTRDGFIVGIHSASNFTNTNNYFTSVPKNFMELLTNQEAQQWVSGWRLNADSVLWGGHKVFMVKPEEPFQPVKEATQL

This is one part of the list. Sequences were assembled here from the parent chain. Inactive controls read about 0.05.
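Further: Bxb1 expression induced with 0.2% (w/v) L-rhamnose at OD600 near 0.5, cultures sampled hourly, flipped fraction per protease–substrate barcode pair counted by paired-end Illumina sequencing.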

Variants of B1 are the subject of this experiment. Kind of experiment: raw area under fraction-flipped curve 0-4 h after induction (AUC4h, not background-subtracted), DNA-recorder readout of cleavage of the substrate (dimensionless); higher = more cleavage of the substrate by the protease variant. The settings on record: temperature: 34 °C; time window: 0-4 h after rhamnose induction.
On to MGESLFKGPRDYNPISSSICHLTNESDGHTTSLYGIGFGPFIITNKHLFRRNNGTLVVQSLHGVFKVKDTTTLQQHLVDGRDMIIIRMPKDFPPFPQKLKFREPQREERICLVTTNFQTKSMSSMVSDTSCTFPSGDGIFWKHWIQTKDGQCGSPLVSTRDGFIVGIHSASNFTNTNNYFTSVPKNFMELLTNQEAQQIVSGWRLNADSVLWGGHKVFMVKPEEPFQPVKEATQL [W199I], for which the “area with substrate EILYFQS” value came out at 0.0793, the “area with substrate EKLYFQS” value turned out to be 0.0403, the “area with substrate ELLYFQS” value was determined as 0.0613 and the “area with substrate EMLYFQS” value amounted to 0.0476. The “area with substrate EPLYFQS” value stood at 0.0726 and the “area with substrate EQLYFQS” value was found to be 0.073.

For the variant MGESLFKGPRDYNPISSSICHLTNESDGHTTSLYGIGFGPFIITNKHLFRRNNGTLVVQSLHGVFKVKDTTTLQQHLVDGRDMIIIRMPKDFPPFPQKLKFREPQREERICLVTTNFQTKSMSSMVSDTSCTFPSGDGIFWKHWIQTKDGQCGSPLVSTRDGFIVGIHSASNFTNTNNYFTSVPKNFMELLTNQVAQQWVSGWRLNADSVLWGGHKVFMVKPEEPFQPVKEATQL [E195V], the “area with substrate EKLYFQS” value worked out at 0.0784 and the “area with substrate ESLYFQS” value was 0.0849.

For the variant MGESLFKGPRDYNPISSSICHLTNESDGHTTSLYGIGFGPFIITNKHLFRRNNGTLVVQSLHGVFKVKDTTTLQQHLVDGRDMIIIRMPKDFPPFPQKLKFREPQREERICLVTTNFQTKSMSSMVSDTSCTFPSGDGIFWKHWIQTKDGQCGSPLVSTRDGFIVGIHSATNFTNTNNYFTSVPKNFMELLTNQEAQQWVSGWRLNADSVLWGGHKVFMVKPEEPFQPVKEATQL [S171T], the “area with substrate EHLYFQS” value was determined as 0.172, the “area with substrate EKLYFQS” value was 0.164 and the “area with substrate EPLYFQS” value is 0.14.

Consider MGESLFKGPRDYNPISSSICHLTNESDGHTTSLYGIGFGPFIITNKHLFRRNNGTLVVQSLHGVFKVKDTTTLQQHLVDGRDMIIIRMPKDFPPFPQKLKFREPQREERICLVTTNFQTKSMSSMVSDTSCTFPSGDGIFWKHWIQTKDGQCGSPLVSTRPGFIVGIHSASNFTNTNNYFTSVPKNFMELLTNQEAQQWVSGWRLNADSVLWGGHKVFMVKPEEPFQPVKEATQL [D161P], for which the “area with substrate EILYFQS” value was 0.0516, the “area with substrate EKLYFQS” value came out at 0.058, the “area with substrate EPLYFQS” value was 0.0296 and the “area with substrate EVLYFQS” value is 0.0757.

Regarding MGESLFKGPRDYNPISSSICHLTNESDGHTTSLYGIGFGPFIITNKHLFRRNNGTLVVQSLHGVFKVKDTTTLQQHLVDGRDMIIIRMPKDFPPFPQKLKFREPQREERICLVTTNFQTKSMSSMVSDTSCTFPSGDGIFWKHWIQTKDGQCGSPLVSTRDGFIVGIHSASNFTNTNNYFTSVPKNFMELLTNQEAQQWVSGWRLNADSVLWGGHKVFMVKPGEPFQPVKEATQL [E223G], the “area with substrate EHLYFQS” value amounted to 0.0952 and the “area with substrate EQLYFQS” value was found to be 0.131.

Take MGESLFKGPRDYNPISSSICHLTNESDGHTTSLYGIGFGPFIITNKHLFRRNNGTLVVQSLHGVFKVKDTTTLQQHLVDGRDMIIIRMPKDFPPFPQKLKFREPQREERICLVTTNFQTKSMSSMVSDTSCTFPSGDGIFWKHWIQTKDGQCGSPLVSTRDGFIVGIHSASNFTNTNNNFTSVPKNFMELLTNQEAQQWVSGWRLNADSVLWGGHKVFMVKPEEPFQPVKEATQL [Y179N]: the “area with substrate EILYFQS” value stood at 0.0425, the “area with substrate EPLYFQS” value was determined as 0.0513 and the “area with substrate EQLYFQS” value turned out to be 0.062.

MGESLFKGPRDYNPISSSICHLTNESDGHTTSLYGIGFGPFIITNKHLFRRNNGTLVEQSLHGVFKVKDTTTLQQHLVDGRDMIIIRMPKDFPPFPQKLKFREPQREERICLVTTNFQTKSMSSMVSDTSCTFPSGDGIFWKHWIQTKDGQCGSPLVSTRDGFIVGIHSASNFTNTNNYFTSVPKNFMELLTNQEAQQWVSGWRLNADSVLWGGHKVFMVKPEEPFQPVKEATQL [V58E]: the “area with substrate EKLYFQS” value was 0.0361 and the “area with substrate EVLYFQS” value stood at 0.0387.

Regarding MGESLFKGPRDYNPISSSICHLTNESDGHTTSLYGIGFGPFIITNKHLFRRNNGTLVVQSLHGVFKVKDTTTLQQHLVDGRDMIIIRMPKDFPPFPQKLKFREPQREERICLVTTNFQTKSMSSMVSDTSCTFPSGDGIFWKHWILTKDGQCGSPLVSTRDGFIVGIHSASNFTNTNNYFTSVPKNFMELLTNQEAQQWVSGWRLNADSVLWGGHKVFMVKPEEPFQPVKEATQL [Q146L], the “area with substrate EHLYFQS” value is 0.0695, the “area with substrate EILYFQS” value came to 0.121, the “area with substrate EKLYFQS” value was determined as 0.129 and the “area with substrate ESLYFQS” value amounted to 0.124.

Consider MGESLFKGPRDYNPISSSICHLTNESDGHTTSLYGIGFGPFIITNKHLFRGNNGTLVVQSLHGVFKVKDTTTLQQHLVDGRDMIIIRMPKDFPPFPQKLKFREPQREERICLVTTNFQTKSMSSMVSDTSCTFPSGDGIFWKHWIQTKDGQCGSPLVSTRDGFIVGIHSASNFTNTNNYFTSVPKNFMELLTNQEAQQWVSGWRLNADSVLWGGHKVFMVKPEEPFQPVKEATQL [R51G], for which the “area with substrate EILYFQS” value is 0.0737, the “area with substrate EKLYFQS” value came to 0.121, the “area with substrate EPLYFQS” value amounted to 0.128 and the “area with substrate ERLYFQS” value was 0.0908. For the same variant, the “area with substrate ESLYFQS” value was determined as 0.125.

For MGESLFKGPRDYNPISSSICHLTNESDGHTTSLYGIGFGPFIITNKHLFRRNNGTLVVQSLHGVFKVKDTTTLQQHLVDGRDMIIIRMPKDFPPFPQKLKFREPQREERICLVTTNFQTKSMSSMVSDTSCTFPSGDGIFWKHWIQTKDGQCGSPLVSTRDGFIVGIHSASNFTNTNNYFTSVPKNFMELLTNQEAQQWVSGWRLNADSVLWGGHKVFMVKPEESFQPVKEATQL [P225S], the “area with substrate EILYFQS” value was 0.0769, the “area with substrate ELLYFQS” value is 0.0984, the “area with substrate EQLYFQS” value was determined as 0.0882 and the “area with substrate ERLYFQS” value turned out to be 0.0868. Moreover, the “area with substrate EVLYFQS” value worked out at 0.0024, the “area with substrate EWLYFQS” value was determined as 0.104 and the “area with substrate EYLYFQS” value was 0.0709.

Take MGESLFKGPRDYNPISSSICHLTNESDGHTTSLYGIGFGPFIITNKHLFRRNNGTLVVQSLHGVFKVKDTTTLQQHLVDGRDMIIIRMPKDFPPFPQKLKFREPQREERICLVTTNFQTKSMSSMVSDTSCTFPSGDGIFWKHWIQTKDGQCGSPLVSTRDGFIVGIHSASNFTNTNNYFTSVPKNFMELLTNQEAQQWVSGWRLNADSVLWGGHKVFMTKPEEPFQPVKEATQL [V220T]: the “area with substrate EKLYFQS” value was 0.115, the “area with substrate ELLYFQS” value was 0.117, the “area with substrate EPLYFQS” value came to 0.115 and the “area with substrate ERLYFQS” value is 0.0949. Moreover, the “area with substrate ESLYFQS” value came out at 0.103.

For MGESLFKGPRDYNPISSSICHLTNESDGHTTSLYGIGFGPFIITNKHLFRRNNGTLVVQSLHGVFKVKDTTTLQQHLVDGRDMIIIRMPKDFPPFPQKLKFREPQREERICLVTTNFQTKSMSSMVSDTSCTFPSGDGIFWKHWIQTKDGQCGSPLVSTRDGFIVGIHSASNFTNTNNYFTSVPKNFMELLTNQEAQQWVSGWRLNADSVLWGGHKVFMVKPEEPFQPVKEATDL [Q234D], the “area with substrate EHLYFQS” value was 0.109, the “area with substrate EILYFQS” value came out at 0.0966, the “area with substrate EKLYFQS” value turned out to be 0.131 and the “area with substrate ELLYFQS” value came to 0.0906. Besides, the “area with substrate EMLYFQS” value is 0.104, the “area with substrate EQLYFQS” value was determined as 0.144, the “area with substrate ERLYFQS” value came to 0.118 and the “area with substrate ESLYFQS” value worked out at 0.116. The “area with substrate EVLYFQS” value worked out at 0.0997 and the “area with substrate EYLYFQS” value was 0.0964.
